# Reference: the supplement of paper PMC8728848
# The other results are listed elsewhere or left out.
# Legend:
# Assay in all cases: glycan array binding signal (z-score within array); higher = stronger binding
# Details in all cases: glycan notation: IUPAC condensed, linker removed
# [1] = target: GlcNAc(b1-4)GlcNAc
# Method in brief: (§1)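 The binding signal is a Z-score computed within each array. Data were drawn from 3228 arrays in the Consortium for Functional Glycomics database, restricted to those with a known protein sequence. Scores were averaged over arrays of the same protein sequence at different concentrations or buffers, and over linkers, and negative values can be taken as non-binding.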
# [2] = target: GlcNAc(b1-4)GlcNAc(b1-4)GlcNAc
# Method in brief: as §1
# [3] = target: GlcNAc(b1-4)GlcNAc(b1-4)GlcNAc(b1-4)GlcNAc(b1-4)GlcNAc
# Method in brief: as §1
# [4] = target: GlcNAc(b1-4)GlcNAc(b1-4)GlcNAc(b1-4)GlcNAc(b1-4)GlcNAc(b1-4)GlcNAc
# Method in brief: as §1
# [5] = target: GlcNAc(b1-4)[GlcNAc(b1-6)]GalNAc
# Method in brief: as §1
# [6] = target: GlcNAc(b1-6)Gal(b1-4)GlcNAc
# Method in brief: as §1
# [7] = target: GlcNAc(b1-6)GalNAc
# Method in brief: as §1
# [8] = target: GlcNAc6S(b1-3)Gal(b1-4)GlcNAc
# Method in brief: as §1
# [9] = target: HexA(a1-3)GalNAc4S(b1-4)GlcA(b1-3)GalNAc4S(b1-4)GlcA(b1-3)GalNAc4S(b1-4)GlcA(b1-3)GalNAc4S(b1-4)GlcA(b1-3)GalNAc4S(b1-4)GlcA(b1-3)GalNAc4S(b1-4)GlcA(b1-3)GalNAc4S(b1-4)GlcA(b1-3)GalNAc4S
# Method in brief: as §1
# [10] = target: HexA(a1-3)GalNAc4S(b1-4)IdoA(a1-3)GalNAc4S(b1-4)IdoA(a1-3)GalNAc4S(b1-4)IdoA(a1-3)GalNAc4S(b1-4)IdoA(a1-3)GalNAc4S(b1-4)IdoA(a1-3)GalNAc4S(b1-4)IdoA(a1-3)GalNAc4S(b1-4)IdoA(a1-3)GalNAc4S
# Method in brief: as §1
# [11] = target: HexA(a1-3)GalNAc6S(b1-4)GlcA(b1-3)GalNAc6S(b1-4)GlcA(b1-3)GalNAc6S(b1-4)GlcA(b1-3)GalNAc6S(b1-4)GlcA(b1-3)GalNAc6S(b1-4)GlcA(b1-3)GalNAc6S(b1-4)GlcA(b1-3)GalNAc6S(b1-4)GlcA(b1-3)GalNAc6S
# Method in brief: as §1
# [12] = target: HexA2S(a1-4)GlcNS6S(a1-4)IdoA2S(a1-4)GlcNS6S(a1-4)IdoA2S(a1-4)GlcNS6S(a1-4)IdoA2S(a1-4)GlcNS6S(a1-4)IdoA2S(a1-4)GlcNS6S(a1-4)IdoA2S(a1-4)GlcNS6S(a1-4)IdoA2S(a1-4)GlcNS6S(a1-4)IdoA2S(a1-4)GlcNS6S(a1-4)IdoA2S
# Method in brief: as §1
# [13] = target: Kdn(a2-3)Gal(b1-3)GalNAc
# Method in brief: as §1
# [14] = target: Kdn(a2-3)Gal(b1-3)GlcNAc
# Method in brief: as §1
# [15] = target: Kdn(a2-3)Gal(b1-4)Glc
# Method in brief: as §1
# [16] = target: Kdn(a2-3)Gal(b1-4)GlcNAc
# Method in brief: as §1
# [17] = target: Kdn(a2-3)Gal(b1-4)[Fuc(a1-3)]GlcNAc
# Method in brief: as §1
# [18] = target: Kdn(a2-6)Gal(b1-4)GlcNAc
# Method in brief: as §1
# [19] = target: Man(a1-2)Man
# Method in brief: as §1
# [20] = target: Man(a1-2)Man(a1-2)Man(a1-3)Man
# Method in brief: as §1
# [21] = target: Man(a1-2)Man(a1-2)Man(a1-3)[Man(a1-2)Man(a1-3)[Man(a1-2)Man(a1-6)]Man(a1-6)]Man(b1-4)GlcNAc(b1-4)GlcNAc
# Method in brief: as §1
# [22] = target: Man(a1-2)Man(a1-2)Man(a1-3)[Man(a1-2)Man(a1-6)[Man(a1-3)]Man(a1-6)]Man(b1-4)GlcNAc(b1-4)GlcNAc
# Method in brief: as §1
# [23] = target: Man(a1-2)Man(a1-2)Man(a1-3)[Man(a1-3)[Man(a1-6)]Man(a1-6)]Man(b1-4)GlcNAc(b1-4)GlcNAc
# Method in brief: as §1
# [24] = target: Man(a1-2)Man(a1-2)Man(a1-6)[Man(a1-3)]Man
# Method in brief: as §1
# [25] = target: Man(a1-2)Man(a1-3)Man
# Method in brief: as §1
# [26] = target: Man(a1-2)Man(a1-3)[Man(a1-2)Man(a1-6)[Man(a1-3)]Man(a1-6)]Man(b1-4)GlcNAc(b1-4)GlcNAc
# Method in brief: as §1
# [27] = target: Man(a1-2)Man(a1-3)[Man(a1-2)Man(a1-6)]Man
# Method in brief: as §1
# [28] = target: Man(a1-2)Man(a1-3)[Man(a1-2)Man(a1-6)]Man(a1-6)[Man(a1-2)Man(a1-2)Man(a1-3)]Man
# Method in brief: as §1
# [29] = target: Man(a1-2)Man(a1-3)[Man(a1-2)Man(a1-6)]Man(a1-6)[Man(a1-2)Man(a1-2)Man(a1-3)]Man(b1-4)GlcNAc(b1-4)GlcNAc
# Method in brief: as §1
# [30] = target: Man(a1-2)Man(a1-3)[Man(a1-3)[Man(a1-6)]Man(a1-6)]Man(b1-4)GlcNAc(b1-4)GlcNAc
# Method in brief: as §1
# [31] = target: Man(a1-2)Man(a1-3)[Man(a1-6)]Man(a1-6)[Man(a1-2)Man(a1-3)]Man(b1-4)GlcNAc(b1-4)GlcNAc
# Method in brief: as §1
# [32] = target: Man(a1-2)Man(a1-6)[Man(a1-3)]Man(a1-6)[Man(a1-2)Man(a1-2)Man(a1-3)]Man
# Method in brief: as §1
# [33] = target: Man(a1-2)Man(a1-6)[Man(a1-3)]Man(a1-6)[Man(a1-2)Man(a1-2)Man(a1-3)]Man(b1-4)GlcNAc(b1-4)GlcNAc
# Method in brief: as §1
# [34] = target: Man(a1-3)Man
# Method in brief: as §1
# [35] = target: Man(a1-3)Man(a1-6)[Man(a1-3)]Man(b1-4)GlcNAc(b1-4)GlcNAc
# Method in brief: as §1
# [36] = target: Man(a1-3)Man(b1-4)GlcNAc
# Method in brief: as §1
# [37] = target: Man(a1-3)[Man(a1-6)]Man
# Method in brief: as §1
# [38] = target: Man(a1-3)[Man(a1-6)]Man(a1-6)Man(b1-4)GlcNAc(b1-4)GlcNAc
# Method in brief: as §1
# [39] = target: Man(a1-3)[Man(a1-6)]Man(a1-6)[Man(a1-2)Man(a1-3)]Man(b1-4)GlcNAc(b1-4)GlcNAc
# Method in brief: as §1
# [40] = target: Man(a1-3)[Man(a1-6)]Man(a1-6)[Man(a1-3)]Man
# Method in brief: as §1
# [41] = target: Man(a1-3)[Man(a1-6)]Man(a1-6)[Man(a1-3)]Man(b1-4)GlcNAc(b1-4)GlcNAc
# Method in brief: as §1
# [42] = target: Man(a1-3)[Man(a1-6)]Man(b1-4)GlcNAc(b1-4)GlcNAc
# Method in brief: as §1
# [43] = target: Man(a1-3)[Man(a1-6)]Man(b1-4)GlcNAc(b1-4)[Fuc(a1-6)]GlcNAc
# Method in brief: as §1
# [44] = target: Man(a1-6)Man
# Method in brief: as §1
# [45] = target: Man(a1-6)Man(b1-4)GlcNAc(b1-4)GlcNAc
# Method in brief: as §1
binder,measurement,setting,value
Banana lectin (Musa acuminata) (protein) MNGAIKVGAWGGNGGSAFDMGPAYRIISVKIFSGDVVDGVDVTFTYYGKTETRHYGGSGGTPHEIVLQEGEYLVGMAGEVANYHGAVVLGKLGFSTNKKAYGPFGNTGGTPFSLPIAAGKISGFFGRGGKFLDAIGVYLEPLEHHHHHH,glycan array binding signal (z-score),[1],-0.201
same,glycan array binding signal (z-score),[2],-0.259
same,glycan array binding signal (z-score),[3],-0.211
same,glycan array binding signal (z-score),[4],-0.209
same,glycan array binding signal (z-score),[5],-0.218
same,glycan array binding signal (z-score),[6],-0.191
same,glycan array binding signal (z-score),[7],-0.228
same,glycan array binding signal (z-score),[8],-0.197
same,glycan array binding signal (z-score),[9],-0.99
same,glycan array binding signal (z-score),[10],-0.99
same,glycan array binding signal (z-score),[11],-0.99
same,glycan array binding signal (z-score),[12],-0.99
same,glycan array binding signal (z-score),[13],-0.211
same,glycan array binding signal (z-score),[14],-0.19
same,glycan array binding signal (z-score),[15],-0.261
same,glycan array binding signal (z-score),[16],-0.203
same,glycan array binding signal (z-score),[17],-0.237
same,glycan array binding signal (z-score),[18],-0.193
same,glycan array binding signal (z-score),[19],-0.865
same,glycan array binding signal (z-score),[20],1.68
same,glycan array binding signal (z-score),[21],1.64
same,glycan array binding signal (z-score),[22],1.78
same,glycan array binding signal (z-score),[23],1.06
same,glycan array binding signal (z-score),[24],6.19
same,glycan array binding signal (z-score),[25],2.25
same,glycan array binding signal (z-score),[26],1.89
same,glycan array binding signal (z-score),[27],4.51
same,glycan array binding signal (z-score),[28],5.96
same,glycan array binding signal (z-score),[29],2.62
same,glycan array binding signal (z-score),[30],0.545
same,glycan array binding signal (z-score),[31],8.11
same,glycan array binding signal (z-score),[32],3.34
same,glycan array binding signal (z-score),[33],6.29
same,glycan array binding signal (z-score),[34],-0.842
same,glycan array binding signal (z-score),[35],0.154
same,glycan array binding signal (z-score),[36],0.062
same,glycan array binding signal (z-score),[37],2.38
same,glycan array binding signal (z-score),[38],0.352
same,glycan array binding signal (z-score),[39],13.1
same,glycan array binding signal (z-score),[40],0.187
same,glycan array binding signal (z-score),[41],2.4
same,glycan array binding signal (z-score),[42],4.01
same,glycan array binding signal (z-score),[43],2.88
same,glycan array binding signal (z-score),[44],0.36
same,glycan array binding signal (z-score),[45],0.917
